# Results taken from publication PMC4336329 (PLoS ONE, 2015).
# Out of some 310,000 compounds screened, about 2,200 (0.71%) showed an effect of 50% or more. The effect is printed as a negative number. The list shows a part of the results.
# Molecular target: human ether-à-go-go-related gene (hERG) potassium channel (human, UniProt Q12809)
# Assay: primary screen, population patch clamp on CHO cells stably expressing hERG
# human ether-à-go-go-related gene (hERG) potassium channel, sequence (Q12809 whole entry, looked up): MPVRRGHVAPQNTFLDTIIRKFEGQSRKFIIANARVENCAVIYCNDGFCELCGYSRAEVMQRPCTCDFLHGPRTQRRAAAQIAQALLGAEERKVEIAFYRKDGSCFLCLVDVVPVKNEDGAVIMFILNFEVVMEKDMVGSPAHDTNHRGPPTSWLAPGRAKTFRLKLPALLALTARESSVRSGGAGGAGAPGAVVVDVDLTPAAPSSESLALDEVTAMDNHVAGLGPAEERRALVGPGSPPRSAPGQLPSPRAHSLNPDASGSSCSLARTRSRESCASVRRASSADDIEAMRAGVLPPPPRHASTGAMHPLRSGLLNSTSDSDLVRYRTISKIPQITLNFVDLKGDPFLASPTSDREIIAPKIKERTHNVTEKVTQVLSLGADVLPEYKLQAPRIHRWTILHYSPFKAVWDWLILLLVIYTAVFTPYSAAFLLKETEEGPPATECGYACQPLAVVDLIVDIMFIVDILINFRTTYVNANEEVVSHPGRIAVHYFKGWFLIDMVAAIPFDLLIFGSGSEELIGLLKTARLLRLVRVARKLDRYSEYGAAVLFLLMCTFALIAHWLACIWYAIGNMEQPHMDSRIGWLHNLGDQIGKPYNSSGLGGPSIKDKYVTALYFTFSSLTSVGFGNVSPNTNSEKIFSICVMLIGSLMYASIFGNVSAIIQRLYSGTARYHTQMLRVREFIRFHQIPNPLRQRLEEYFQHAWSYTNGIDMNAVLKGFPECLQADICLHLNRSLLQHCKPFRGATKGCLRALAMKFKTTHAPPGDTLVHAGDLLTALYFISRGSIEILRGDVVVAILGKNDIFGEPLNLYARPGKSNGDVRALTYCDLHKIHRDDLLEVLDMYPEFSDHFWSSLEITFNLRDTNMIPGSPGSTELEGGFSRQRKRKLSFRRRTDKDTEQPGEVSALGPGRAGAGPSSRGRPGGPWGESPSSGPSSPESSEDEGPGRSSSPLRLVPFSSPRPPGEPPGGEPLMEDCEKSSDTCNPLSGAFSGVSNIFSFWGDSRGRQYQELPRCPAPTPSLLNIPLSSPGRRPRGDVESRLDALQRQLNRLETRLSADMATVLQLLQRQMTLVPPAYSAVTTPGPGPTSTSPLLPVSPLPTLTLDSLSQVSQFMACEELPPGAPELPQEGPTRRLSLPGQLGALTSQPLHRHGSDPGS
row,SMILES,"hERG current change (%, negative = inhibition) at 1uM [%]"
1,Cc1ccc[n+](CC(=O)Nc2cccc([N+](=O)[O-])c2)c1.[Cl-],15.8
2,O=C(Cn1cnc([N+](=O)[O-])n1)N/N=C/c1ccc(O)cc1O,11.7
3,Cc1ccc(C)c(NC(=O)c2ccc[n+](Cc3ccc([N+](=O)[O-])cc3)c2)c1.[Br-],7.31
4,Cc1ccc(CNc2ccc3nnc(-c4ccccc4)n3n2)cc1,9.06
5,CCOc1ccccc1CN1CCN(Cc2ccc(C)o2)CC1CCO (stereo not shown),-9.63
6,COc1ccc(-n2ccnc2CN2CCCC(CO)(Cc3cccc(OC)c3)C2)cc1 (stereo not shown),0.509
7,COC(=O)C1(C)CN(S(=O)(=O)c2ccc(C)cc2)c2cc(OC)ccc2C1=O (stereo not shown),6.72
8,Cc1n[nH]c(C)c1S(=O)(=O)N1CCN(c2ccccn2)CC1,10.7
9,Cc1c(NC(=O)/C(=C/c2cccs2)NC(=O)c2ccccc2)c(=O)n(-c2ccccc2)n1C,11
10,CCC(C)c1cc(S(=O)(=O)N2CCOCC2)ccc1OC (stereo not shown),-1.67
11,COc1cc2[nH]c(=S)nc(NCCCOC(C)C)c2cc1OC,4.64
12,CSc1ccccc1NC(=O)Cn1nc([N+](=O)[O-])c(Cl)c1C,11.9
13,CC(C)n1c(O)c(N=NC(=O)CNC(=O)CCc2ccccc2)c2ccccc21,-1.31
14,Cc1ccccc1-c1noc(-c2ccccc2F)n1,-1.77
15,CCCc1nnc(NC(=O)c2cc3ccccc3o2)s1,20
16,Cc1ccc(S(=O)(=O)CCN2CCN(c3ccccc3)CC2)cc1,5.58
17,O=C(NCc1n[nH]c(=S)n1-c1ccccc1)c1ccc(S(=O)(=O)N2CCCCC2)cc1,3.47
18,COc1ccc(/C=N/NC(=O)c2cccc(Br)c2)cc1CSc1ccccn1,5.78
19,COc1cc(C(=O)NCc2nnc(SCC(=O)N3CCC(C)CC3)o2)cc(OC)c1OC,9.62
20,O=C(Nc1ccc2c(c1)OCO2)N1CCN(c2cccc(C(F)(F)F)c2)CC1,7.41
21,COC(=O)NNC(=O)Cc1cccc2ccccc12,15.1
22,Cc1nc2ccccc2n1C(=O)c1cc(-c2ccc(Br)cc2)nc2ccccc12,20.2

row,SMILES,"hERG current change (%, negative = inhibition) at 1uM [%]"
1,COc1ccc(CN2CCC(N(CCc3ccccc3)Cc3ccccc3)CC2)c(OC)c1.O=C(O)C(=O)O,-79.8
2,CCC(C)(C)c1ccc(OCCCC[n+]2cccc(C)c2C)c(C(C)(C)CC)c1.[Br-],-52.7
3,CCc1c(C)nc(N2CCN(c3ccc(Cl)cc3)CC2)[nH]c1=O,16.8
4,COc1ccc(C(=O)NCc2cccc(Cl)c2)cc1S(=O)(=O)N1CCOCC1,7.38
5,CCC(C)N(C(=O)COC(=O)C1CCN(S(=O)(=O)c2ccc(C)c(C)c2)CC1)C1CCS(=O)(=O)C1 (stereo not shown),-10.6
6,O=C(COC(=O)c1cccc(S(=O)(=O)N2CCOCC2)c1)Nc1ncc(Cl)cc1Cl,5.26
7,C/C(=N\OCC(=O)Nc1ccc(OC(F)(F)F)cc1)c1ccc2c(c1)OCCO2,6.61
8,CCC(=O)N1CCc2cc(Br)cc(S(=O)(=O)CCC(=O)NCc3ccco3)c21,-3.2
9,O=C(Nc1ccc(F)cc1F)NC1CC(=O)N(Cc2ccccc2)C1 (stereo not shown),11.7
10,CCC(CC)c1nnc(NC(=O)C2=NNC(=O)CC2)s1,3.23
11,Cc1ccccc1-c1nc(CN2CCC(C(=O)NCc3cccs3)CC2)c(C)o1,-47.9
12,CCc1ccccc1NC(=O)c1ccc(S(=O)(=O)NCC2CCCO2)cc1 (stereo not shown),14
13,CC(=O)Nc1ccc(SC[C@H](C)CN2CC[C@H](O)CCC2=O)cc1,12.6
14,Cc1ccc(-n2c(Cn3c(C)nc4ccccc43)n[nH]c2=S)cc1,8.03
15,Cc1ccc(S(=O)(=O)CNC(=S)c2ccc3ccccc3c2)cc1,-10.8
16,COc1cc(NC(=O)CN2c3ccccc3CC2C)cc(OC)c1OC (stereo not shown),11.2
17,CC(=O)c1cccc(NC(=O)CCS(=O)(=O)c2cccc3nonc23)c1,-3.92
18,Cc1[nH]c2ccccc2c1/C=N/NC(=O)c1cccs1,23.1
19,COc1ccc(-c2csc(NC(=O)CSc3n[nH]c(N)n3)n2)cc1,6.22
20,COc1ccc(O)c(C(=O)C2c3ccccc3C(=O)N2c2ccc(C)cc2)c1 (stereo not shown),15.4
21,Cc1ccc(/C=C/C(=O)Nc2sc3c(c2C#N)CCCC3)o1,4.19
